# According to the antibiotic and cytotoxicity screens of Wong et al. (2023):
# The list shows a part of the results.
# Test system: HepG2
# Assay: cytotoxicity call (relative viability < 0.9)
# Details: 10 µM
row,Structure (SMILES),cytotoxicity call
1,Cc1noc(C)c1NC(=O)N(C)C[C@H]1Oc2c(NC(=O)Nc3ccc(C(F)(F)F)cc3)cccc2C(=O)N([C@@H](C)CO)C[C@@H]1C,inactive
2,COc1cccc(S(=O)(=O)N(C)C[C@@H]2Oc3cc(C#CCN(C)C)ccc3S(=O)(=O)N([C@@H](C)CO)C[C@H]2C)c1,inactive
3,Cc1cc(C(=O)Nc2cccc3c2O[C@@H](CN(C)C(=O)Nc2c(C)noc2C)[C@@H](C)CN([C@H](C)CO)C3=O)n(C)n1,inactive
4,C[C@@H]1CN([C@H](C)CO)C(=O)Cc2cc(NC(=O)Nc3cccc4ccccc34)ccc2O[C@@H]1CN(C)Cc1ccc(C(=O)O)cc1,inactive
5,C[C@@H]1CN([C@H](C)CO)C(=O)c2cc(NS(=O)(=O)c3cccs3)ccc2O[C@@H](C)CCCCO[C@@H]1CN(C)Cc1ccc(Cl)c(Cl)c1,inactive
6,Cn1c(=O)c2c(nc(S(C)(=O)=O)n2C)n(C)c1=O,active
7,C[C@H]1CN([C@@H](C)CO)S(=O)(=O)c2ccc(C#Cc3ccc(F)cc3)cc2O[C@H]1CN(C)S(C)(=O)=O,inactive
8,COc1ccc(CN(C)C[C@H]2Oc3ccc(NS(C)(=O)=O)cc3CC(=O)N([C@H](C)CO)C[C@H]2C)cc1,inactive
